About 6,400 (1.6%) of roughly 410,000 compounds were called active. This list was built around the results that the source calls inconclusive (neither active nor inactive); the mix of calls is not that of the screen. The call rests on the fitted dose curve; in most records, active means well fitted inhibition curve with a large enough effect; inconclusive means small, poorly fitted or top-dose-only effect; inactive means no such curve, though single readings can be large or run the other way. Potencies of inconclusive entries are left out as doubtful fits.
target: Glucagon-like peptide 1 receptor (Homo sapiens) (UniProt P43220); test: qHTS of GLP-1 Receptor Inverse Agonists (Inhibition Mode); settings: HEK293 GLP-1R CRE-luciferase, luminescence, 24 h, GLP-1R form is constitutively active; activity change, negative = inhibition: at 38.3 µM (top of the series) unless noted; further: nearly all actives have a fitted effect of over 55% in size
UniProt P43220, sequence (P43220 whole entry, looked up): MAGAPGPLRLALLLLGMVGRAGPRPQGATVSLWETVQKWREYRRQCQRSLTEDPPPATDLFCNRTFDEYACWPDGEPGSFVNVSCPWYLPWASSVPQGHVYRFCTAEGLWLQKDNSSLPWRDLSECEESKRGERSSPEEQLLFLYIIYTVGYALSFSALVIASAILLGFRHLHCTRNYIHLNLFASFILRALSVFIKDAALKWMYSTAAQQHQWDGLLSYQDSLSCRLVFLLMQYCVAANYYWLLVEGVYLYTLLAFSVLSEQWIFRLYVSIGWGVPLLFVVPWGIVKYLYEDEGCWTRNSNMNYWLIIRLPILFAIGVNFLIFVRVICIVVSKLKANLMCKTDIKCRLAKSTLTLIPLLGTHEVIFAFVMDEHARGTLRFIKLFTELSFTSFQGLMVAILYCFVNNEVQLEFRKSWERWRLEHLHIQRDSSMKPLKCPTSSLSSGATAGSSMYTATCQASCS
Procedure, shortened: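 Inverse agonists were sought by their lowering of basal cAMP reporter luciferase output in HEK293 cells stably carrying constitutively active human GLP-1R, after 24 h compound treatment.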
On the % scale 0 is the no-effect control and ±100 the full control effect; potency means the concentration at half of the fitted maximal effect; tags describe the fitted curve by direction and shape.

Structure (SMILES) | Potency | activity change, negative = inhibition
COc1ccc(C(O)c2ncc(-c3ccc4ccccc4c3)[nH]2)cc1F (configuration not stated) | inconclusive [inhibitor, single point] | –
O=C(NCc1ccccc1)C(c1ccccc1F)n1c(=O)c(-c2cc3ccccc3[nH]2)nc2ccccc21 (configuration not stated) | inconclusive [inhibitor, single point] | –
CCCCCCCCn1c(=O)c(C(=O)OC)c(N)c2ccccc21 | inconclusive [inhibitor, partial curve, poor fit] | –
O=C(COC(=O)C1c2ccccc2Oc2ccccc21)NC1CCS(=O)(=O)C1 (configuration not stated) | inconclusive [inhibitor, single point] | –
C[C@H](CO)N1C[C@H](C)[C@@H](CN(C)C(=O)Nc2ccc(C(F)(F)F)cc2)Oc2c(NC(=O)Nc3ccc4c(c3)OCO4)cccc2C1=O | inconclusive [inhibitor, single point] | –
Cc1cccc(C)c1OCC(=O)N(Cc1cccs1)C1CCS(=O)(=O)C1 (configuration not stated) | inconclusive [inhibitor, partial curve, poor fit] | –
CCC1CCCCN1C(=O)c1sc2nc(C)nc(N(CC)CC)c2c1C (configuration not stated) | inconclusive [inhibitor, single point] | –
O=[N+]([O-])c1cccc(-c2nc3ccc([N+](=O)[O-])cc3[nH]2)c1 | – | inactive: 1.33%
CCOC(=O)c1cc(-c2ccccc2)n(-c2cccc(C(=O)N(C)c3ccc(C)cc3)c2)c1C | inconclusive [inhibitor, partial curve, poor fit] | –
CCOC(=O)c1cc(C)n(CCc2ccccc2)c1C | inconclusive [inhibitor, partial curve, poor fit] | –
CN1C(=O)C(C(=O)NC(C)(C)C)C2c3ccccc3OC13CCCCC23 (configuration not stated) | inconclusive [inhibitor, partial curve, poor fit] | –
COc1ccc2c(c1)c(/C=C/c1cc[n+](C)cc1)cn2C | – | inactive: -37.4%
Cc1ccc(Nc2ccc(N3CCN(c4ccc([N+](=O)[O-])cc4)CC3)nn2)cc1 | – | inactive: 1.75%
CCc1ccc2nc(SCC(=O)N3CC(=O)Nc4ccccc43)c(C#N)cc2c1 | inconclusive [inhibitor, full curve, poor fit] | –
CC(=O)CC1(O)C(=O)N(CN2CCN(c3ccccc3)CC2)c2ccccc21 (configuration not stated) | inconclusive [inhibitor, partial curve, poor fit] | –
COc1cc(/C=N/Nc2ccccn2)ccc1OCC(C)C | inconclusive [inhibitor, single point] | –
CCOc1ccccc1CNC(=O)c1ccc(Cn2c(SCc3ccccc3)nc3cccnc32)cc1 | – | inactive: -13.6%
CC(C)(C)C(=O)N1CCN(c2nc3ccc(Cl)cc3s2)CC1 | inconclusive [inhibitor, full curve, poor fit] | –
Cc1cc(C)nc(NC(=O)c2cccc(Br)c2)n1 | – | inactive: -14.3%
CCOC(=O)C1=C(C)N(c2ccc(Cl)cc2)C(=O)NC1c1cccc([N+](=O)[O-])c1 (configuration not stated) | inconclusive [inhibitor, single point] | –
COCCCNC(=O)N1c2ccccc2Sc2ccccc21 | – | inactive: -16.5%

Structure (SMILES) | Potency | activity change, negative = inhibition
COc1ccc(CNC(=O)C2=C(C)C(=O)OC23CCN(C(C)=O)CC3)cc1 | – | inactive: 15.6%
CC(C)(C)c1ccc(/C=C/C(=O)N2CCN(c3ncccn3)CC2)cc1 | inconclusive [inhibitor, single point] | –
O=C(Nc1scc(-c2ccccc2)c1C(=O)O)c1ccc(F)cc1 | inconclusive [inhibitor, single point] | –
O=C(O)c1ccccc1/C=N/NC(=S)NCc1ccccc1 | – | inactive: 6.34%
CCCCCSc1nncc(=O)[nH]1 | – | inactive: 0%
CCn1c(C(c2ccccc2)c2ccccc2)n[nH]c1=S | inconclusive [inhibitor, single point] | –
CN1CCN(C(=O)c2ccc3c(c2)N(C)C(=O)/C(=C/c2cccc(Cl)c2)S3)CC1 | inconclusive [inhibitor, full curve] | –
O=C1NN=C(c2ccc(Cl)cc2)CC1c1cccc(Br)c1 (configuration not stated) | inconclusive [inhibitor, single point] | –
COc1ccc(N(CC(=O)NCc2ccccc2)S(=O)(=O)c2c(C)noc2C)cc1 | – | inactive: 0.665%
CCN(CC)S(=O)(=O)c1ccc(OC)c(NC(=O)CSc2cc(Cl)ccc2Cl)c1 | inconclusive [inhibitor, partial curve, poor fit] | –
CCOc1ccc(NC(=O)c2nsc(Cl)c2Cl)cc1 | inconclusive [inhibitor, single point] | –
CC(CN1CCN(CCOCCO)CC1)CN1c2ccccc2Sc2ccc(Cl)cc21 (configuration not stated) | inconclusive [inhibitor, partial curve, poor fit] | –
COc1ccc(C(=O)N2CCCC(N3CCN(c4ccccc4F)CC3)C2)c(OC)n1 (configuration not stated) | inconclusive [inhibitor, single point] | –
CCC1(CC)NC(=O)N(CC(=O)Nc2ccc(OCc3ccccc3)cc2)C1=O | inconclusive [inhibitor, partial curve, poor fit] | –
COc1cc(OC)cc(-c2c(C#Cc3ccsc3)c3cc(-c4ccc(N(C)C)nc4)ccc3n2C)c1 | – | inactive: -18.1%
O=C(CCl)N(C/C=C/c1ccccc1)c1ccc2c(c1)OCCO2 | inconclusive [inhibitor, single point] | –
COc1cc(NC(=S)NCCCN2CCOCC2)c(OC)cc1Cl | – | inactive: 13.2%
OC(c1ccc(Cl)c(F)c1)c1ncc(-c2ccccc2C(F)(F)F)[nH]1 (configuration not stated) | inconclusive [inhibitor, single point] | –
CCOC(=O)c1cnc2ccc(Cl)cc2c1Nc1ccc(OCC)cc1 | inconclusive [inhibitor, single point] | –
C[C@@H](C(=O)Nc1ccc2ccccc2c1)[C@@H]1C[C@@]1(C)[C@@H](NC(=O)c1cccnc1)c1ccccc1 | inconclusive [inhibitor, single point] | –
CCN(CC)C(=O)N1CCC(NC(=O)c2ccc(C(C)(C)C)cc2)CC1 | inconclusive [inhibitor, partial curve, poor fit] | –

Structure (SMILES) | Potency | activity change, negative = inhibition
C=CCNC(=O)c1ccc(C2SCC(=O)N2Cc2ccccc2)cc1 (configuration not stated) | – | inactive: -4.41%
C#CCSc1nnc(CNS(=O)(=O)c2ccc(Br)cc2)n1C | inconclusive [inhibitor, single point] | –
CCOc1ccccc1CNC(=O)CCc1cn(CC)c2ccccc12 | inconclusive [inhibitor, partial curve, poor fit] | –
COc1ccc(Nc2cc(C(=O)NCCCN(C)Cc3ccccc3)c3ccccc3n2)cc1 | inconclusive [inhibitor, single point] | –
CC1(C(=O)NCCc2ccccc2)Cc2c(-c3ccc(C(N)=O)cc3)ccnc2O1 (configuration not stated) | inconclusive [inhibitor, single point] | –
CCOC(=O)c1ccccc1NC(=O)CSc1nnc(Cc2cccn2C)n1-c1ccc(C)cc1 | inconclusive [inhibitor, single point] | –
CCOC(=O)c1ccc(NC(=O)CC2C(=O)N(c3ccc(F)cc3)C(=O)N2Cc2ccc(C)cc2)cc1 (configuration not stated) | inconclusive [inhibitor, single point] | –
COc1cc(C#Cc2c(-c3cncn3C)n(C)c3ccc(-c4ccc5cc[nH]c5c4)cc23)cc(OC)c1 | inconclusive [inhibitor, partial curve, poor fit] | –
COc1ccc(CN2C(=O)C(C)S/C2=N/N=C/c2ccco2)cc1 (configuration not stated) | inconclusive [inhibitor, single point] | –
CCOC(=O)[C@]12CCC=C1N(Cc1ccc(Cl)cc1Cl)C(=O)[C@H](CC(=O)NCc1ccc(OC)c(OC)c1)C2 | inconclusive [inhibitor, partial curve, poor fit] | –
Cc1ccc2nc(C3CCCN(C(=S)Nc4cccc(C)c4C)C3)[nH]c2c1 (configuration not stated) | inconclusive [inhibitor, single point] | –
CCOc1cc(C2Sc3ccccc3NC3=C2C(=O)c2ccccc23)ccc1O (configuration not stated) | inconclusive [inhibitor, single point] | –
CC(C)c1ccc(NC(=O)C2(C)Cc3c(-c4ccc5c(c4)OCO5)ccnc3O2)cc1 (configuration not stated) | inconclusive [inhibitor, partial curve, poor fit] | –
CCCCc1ccc(NC(=S)N2CCCC2)cc1 | inconclusive [inhibitor, partial curve, poor fit] | –
O=C1c2ccccc2C(Nc2ccc(Cl)cn2)N1Cc1ccccc1 (configuration not stated) | inconclusive [inhibitor, partial curve, poor fit] | –
CSCC[C@H](NC(=O)c1cccc([N+](=O)[O-])c1C)c1nc2ccccc2[nH]1 | – | inactive: -12.6%
Cc1ccc(C(=O)C[n+]2cc(-c3ccc(C)cc3)n3c2CCCCC3)cc1 | inconclusive [inhibitor, full curve] | –
CCN(CC)CCNCc1cc(Cl)ccc1OCc1ccccc1F | inconclusive [inhibitor, partial curve, poor fit] | –
Cc1onc(-c2c(Cl)cccc2Cl)c1CO/N=C(\C#N)c1c(Cl)cccc1Cl | inconclusive [inhibitor, partial curve, poor fit] | –
O=C(Nc1ccc(-c2csc(Nc3cccc(C(F)(F)F)c3)n2)cc1)c1cc([N+](=O)[O-])cc(C(F)(F)F)c1 | inconclusive [inhibitor, partial curve, poor fit] | –

Source: PubChem BioAssay AID624417 (National Center for Advancing Translational Sciences (NCATS), 2012)
